Results on 1 molecule are retold here after the supplement of paper PMC8728848.

Assay in all cases: glycan array binding signal (z-score within array); higher = stronger binding
Conditions in all cases: glycan notation: IUPAC condensed, linker removed

The target of assay [1] is Neu5Ac(a2-8)Neu5Ac(a2-8)Neu5Ac. An outline of the steps: (§1)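 Glycan array data were curated from 3228 arrays in the Consortium for Functional Glycomics database and kept only where the protein sequence was available. Glycan names were converted to IUPAC-condensed notation, and columns mapping to the same glycan were averaged. The binding signal is a within-array Z-score, averaged across arrays of the same protein sequence at different concentrations or buffers and across linkers. Negative Z-scores can be read as non-binding.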

In assay [2] the target is Neu5Ac(a2-8)Neu5Ac(a2-8)Neu5Ac(a2-3)Gal(b1-4)Glc. An outline of the steps: as §1
For assay [3], the target named is Neu5Ac(a2-8)Neu5Ac(a2-8)Neu5Ac(a2-3)[Gal(b1-3)GalNAc(b1-4)]Gal(b1-4)Glc. An outline of the steps:
as §1

The target in assay [4] is Neu5Ac(a2-8)Neu5Ac(a2-8)Neu5Ac(a2-3)[GalNAc(b1-4)]Gal(b1-4)Glc. An outline of the steps: as §1
In assay [5] the target is Neu5Ac(a2-8)Neu5Ac(a2-8)Neu5Ac(a2-8)Neu5Ac(a2-3)[GalNAc(b1-4)]Gal(b1-4)Glc. An outline of the steps:
as §1

Assay [6] addresses Neu5Ac(a2-8)Neu5Gc(a2-3)Gal(b1-4)GlcNAc. An outline of the steps:
as §1

The target in assay [7] is Neu5Ac(b2-6)Gal(b1-4)GlcNAc. An outline of the steps:
as §1

The next assay has as its target Neu5Ac(b2-6)GalNAc. An outline of the steps: as §1
The target in assay [8] is Neu5Ac9Ac(a2-3)Gal(b1-3)GlcNAc. An outline of the steps: as §1
Assay [9] deals with Neu5Ac9Ac(a2-3)Gal(b1-4)GlcNAc. An outline of the steps:
as §1

For assay [10], the target named is Neu5Ac9Ac(a2-6)Gal(b1-4)GlcNAc. An outline of the steps: as §1
The target of assay [11] is Neu5Gc(a2-3)Gal(b1-3)GlcNAc. An outline of the steps: as §1
The target in assay [12] is Neu5Gc(a2-3)Gal(b1-3)[Fuc(a1-4)]GlcNAc. An outline of the steps: as §1
The target of the next assay is Neu5Gc(a2-3)Gal(b1-4)Glc. An outline of the steps:
as §1

In assay [13] the target is Neu5Gc(a2-3)Gal(b1-4)GlcNAc. An outline of the steps:
as §1

The target of assay [14] is Neu5Gc(a2-3)Gal(b1-4)GlcNAc(b1-3)Gal(b1-4)GlcNAc(b1-2)Man(a1-3)[Neu5Gc(a2-3)Gal(b1-4)GlcNAc(b1-3)Gal(b1-4)GlcNAc(b1-2)Man(a1-6)]Man(b1-4)GlcNAc(b1-4)GlcNAc. An outline of the steps: as §1
Assay [15] has as its target Neu5Gc(a2-3)Gal(b1-4)[Fuc(a1-3)]GlcNAc. An outline of the steps: as §1
Assay [16] deals with Neu5Gc(a2-6)Gal(b1-4)GlcNAc. An outline of the steps:
as §1

The target of the next assay is Neu5Gc(a2-6)GalNAc. An outline of the steps: as §1
Assay [17] concerns the target Neu5Gc(a2-8)Neu5Ac(a2-3)Gal(b1-4)GlcNAc. An outline of the steps: as §1
In assay [18] the target is Neu5Gc(a2-8)Neu5Gc(a2-3)Gal(b1-4)GlcNAc. An outline of the steps:
as §1

Assay [19] deals with Neu5Gc(a2-8)Neu5Gc(a2-3)Gal(b1-4)GlcNAc(b1-3)Gal(b1-4)GlcNAc. An outline of the steps: as §1
Assay [20] addresses Neu5Gc(a2-8)Neu5Gc(a2-6)Gal(b1-4)GlcNAc. An outline of the steps: as §1
Assay [21] deals with Neu5Gc(b2-6)Gal(b1-4)GlcNAc. An outline of the steps: as §1

The other results are listed elsewhere or left out.

B1: SRA-1 (Homo sapiens), P21757 (protein)
chain: MEQWDHFHNQQEDTDSCSESVKFDARSMTALLPPNPKNSPSLQEKLKSFKAALIALYLLVFAVLIPLIGIVAAQLLKWETKNCSVSSTNANDITQSLTGKGNDSEEEMRFQEVFMEHMSNMEKRIQHILDMEANLMDTEHFQNFSMTTDQRFNDILLQLSTLFSSVQGHGNAIDEISKSLISLNTTLLDLQLNIENLNGKIQENTFKQQEEISKLEERVYNVSAEIMAMKEEQVHLEQEIKGEVKVLNNITNDLRLKDWEHSQTLRNITLIQGPPGPPGEKGDRGPTGESGPRGFPGPIGPPGLKGDRGAIGFPGSRGLPGYAGRPGNSGPKGQKGEKGSGNTLTPFTKVRLVGGSGPHEGRVEILHSGQWGTICDDRWEVRVGQVVCRSLGYPGVQAVHKAAHFGQGTGPIWLNEVFCFGRESSIEECKIRQWGTRACSHSEDAGVTCTL
B1: the “glycan array binding signal (z-score)” value in [1] is -0.212; in assay [2] it was -0.276; in assay [3] it was -0.473; in assay [4], -0.262; in assay [5], -0.19; in assay [6] it was -0.167. Also, the “glycan array binding signal (z-score)” value in assay [7] was -0.254; with Neu5Ac(b2-6)GalNAc, -0.217; in assay [8], -0.13; in [9] it was -0.604; in [10], -0.296; in [11] it was -0.425. The “glycan array binding signal (z-score)” value in assay [12] is -0.292; with Neu5Gc(a2-3)Gal(b1-4)Glc, 0.827; in [13], -0.418; in assay [14] it was 0.684; in [15] it was -0.061; in assay [16], -0.349. Moreover, the “glycan array binding signal (z-score)” value with Neu5Gc(a2-6)GalNAc was 0.135; in assay [17], -0.531; in [18], -0.684; in assay [19], -0.164; in assay [20], -0.503; in [21], 0.555.
